# The supplement of paper PMC8728848
# Some of the results follow.
# B1: LCA (Lens culinaris), P02870 (protein)
# chain: MASLQTQMISFYLIFLSILLTTIFFFKVNSTETTSFSITKFSPDQKNLIFQGDGYTTKGKLTLTKAVKSTVGRALYSTPIHIWDRDTGNVANFVTSFTFVIDAPSSYNVADEFTFFIAPVDTKPQTGGGYLGVFNSKEYDKTSQTVAVEFDTFYNAAWDPSNKERHIGIDVNSIKSVNTKSWNLQNGERANVVIAFNAATNVLTVTLTYPNSLEEENVTSYTLNEVVPLKDVVPEWVRIGFSATTGAEFAAHEVHSWSFHSELGGTSSSKQAADA
# How the values were obtained:
# Test in all cases: glycan array binding signal (z-score within array); higher = stronger binding
# Conditions in all cases: glycan notation: IUPAC condensed, linker removed
# [1] = target: Neu5Ac(a2-3)Gal(b1-4)GlcNAc(b1-2)Man
# How it was run: (§1)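 The binding signal is a Z-score computed within each array. Data were drawn from 3228 arrays in the Consortium for Functional Glycomics database, restricted to those with a known protein sequence. Scores were averaged over arrays of the same protein sequence at different concentrations or buffers, and over linkers, and negative values can be taken as non-binding.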
# [2] = target: Neu5Ac(a2-3)Gal(b1-4)GlcNAc(b1-2)Man(a1-3)[GlcNAc(b1-4)][Neu5Ac(a2-3)Gal(b1-4)GlcNAc(b1-2)Man(a1-6)]Man(b1-4)GlcNAc(b1-4)GlcNAc
# How it was run: as §1
# [3] = target: Neu5Ac(a2-3)Gal(b1-4)GlcNAc(b1-2)Man(a1-3)[Neu5Ac(a2-3)Gal(b1-4)GlcNAc(b1-2)Man(a1-6)]Man(b1-4)GlcNAc(b1-4)GlcNAc
# How it was run: as §1
# [4] = target: Neu5Ac(a2-3)Gal(b1-4)GlcNAc(b1-2)Man(a1-3)[Neu5Ac(a2-3)Gal(b1-4)GlcNAc(b1-2)Man(a1-6)]Man(b1-4)GlcNAc(b1-4)[Fuc(a1-6)]GlcNAc
# How it was run: as §1
# [5] = target: Neu5Ac(a2-3)Gal(b1-4)GlcNAc(b1-2)Man(a1-3)[Neu5Ac(a2-6)Gal(b1-4)GlcNAc(b1-2)Man(a1-6)]Man(b1-4)GlcNAc(b1-4)GlcNAc
# How it was run: as §1
# [6] = target: Neu5Ac(a2-3)Gal(b1-4)GlcNAc(b1-2)[Neu5Ac(a2-3)Gal(b1-4)GlcNAc(b1-4)]Man(a1-3)[GlcNAc(b1-4)][Neu5Ac(a2-3)Gal(b1-4)GlcNAc(b1-2)[Neu5Ac(a2-3)Gal(b1-4)GlcNAc(b1-6)]Man(a1-6)]Man(b1-4)GlcNAc(b1-4)GlcNAc
# How it was run: as §1
# [7] = target: Neu5Ac(a2-3)Gal(b1-4)GlcNAc(b1-2)[Neu5Ac(a2-3)Gal(b1-4)GlcNAc(b1-4)]Man(a1-3)[GlcNAc(b1-4)][Neu5Ac(a2-3)Gal(b1-4)GlcNAc(b1-4)Man(a1-6)]Man(b1-4)GlcNAc(b1-4)GlcNAc
# How it was run: as §1
# [8] = target: Neu5Ac(a2-3)Gal(b1-4)GlcNAc(b1-2)[Neu5Ac(a2-3)Gal(b1-4)GlcNAc(b1-6)]Man(a1-6)[Neu5Ac(a2-3)Gal(b1-4)GlcNAc(b1-2)Man(a1-3)]Man(b1-4)GlcNAc(b1-4)GlcNAc
# How it was run: as §1
# [9] = target: Neu5Ac(a2-3)Gal(b1-4)GlcNAc(b1-2)[Neu5Ac(a2-3)Gal(b1-4)GlcNAc(b1-6)]Man(a1-6)[Neu5Ac(a2-3)Gal(b1-4)GlcNAc(b1-2)Man(a1-3)][GlcNAc(b1-4)]Man(b1-4)GlcNAc(b1-4)GlcNAc
# How it was run: as §1
# [10] = target: Neu5Ac(a2-3)Gal(b1-4)GlcNAc(b1-3)Gal
# How it was run: as §1
# [11] = target: Neu5Ac(a2-3)Gal(b1-4)GlcNAc(b1-3)Gal(b1-3)GlcNAc
# How it was run: as §1
# [12] = target: Neu5Ac(a2-3)Gal(b1-4)GlcNAc(b1-3)Gal(b1-4)GlcNAc
# How it was run: as §1
# [13] = target: Neu5Ac(a2-3)Gal(b1-4)GlcNAc(b1-3)Gal(b1-4)GlcNAc(b1-2)Man(a1-3)[Neu5Ac(a2-3)Gal(b1-4)GlcNAc(b1-3)Gal(b1-4)GlcNAc(b1-2)Man(a1-6)]Man(b1-4)GlcNAc(b1-4)GlcNAc
# How it was run: as §1
# [14] = target: Neu5Ac(a2-3)Gal(b1-4)GlcNAc(b1-3)Gal(b1-4)GlcNAc(b1-3)Gal(b1-4)GlcNAc
# How it was run: as §1
# [15] = target: Neu5Ac(a2-3)Gal(b1-4)GlcNAc(b1-3)Gal(b1-4)GlcNAc(b1-3)Gal(b1-4)GlcNAc(b1-2)Man(a1-3)[Neu5Ac(a2-3)Gal(b1-4)GlcNAc(b1-3)Gal(b1-4)GlcNAc(b1-3)Gal(b1-4)GlcNAc(b1-2)Man(a1-6)]GalNAc
# How it was run: as §1
# [16] = target: Neu5Ac(a2-3)Gal(b1-4)GlcNAc(b1-3)Gal(b1-4)GlcNAc(b1-3)GalNAc
# How it was run: as §1
# [17] = target: Neu5Ac(a2-3)Gal(b1-4)GlcNAc(b1-3)Gal(b1-4)GlcNAc(b1-3)[Neu5Ac(a2-3)Gal(b1-4)GlcNAc(b1-3)Gal(b1-4)GlcNAc(b1-6)]GalNAc
# How it was run: as §1
# [18] = target: Neu5Ac(a2-3)Gal(b1-4)GlcNAc(b1-3)Gal(b1-4)GlcNAc(b1-6)[Gal(b1-3)]GalNAc
# How it was run: as §1
# [19] = target: Neu5Ac(a2-3)Gal(b1-4)GlcNAc(b1-3)Gal(b1-4)[Fuc(a1-3)]GlcNAc
# How it was run: as §1
# [20] = target: Neu5Ac(a2-3)Gal(b1-4)GlcNAc(b1-3)GalNAc
# How it was run: as §1
# [21] = target: Neu5Ac(a2-3)Gal(b1-4)GlcNAc(b1-3)[Neu5Ac(a2-3)Gal(b1-4)GlcNAc(b1-6)]GalNAc
# How it was run: as §1
# [22] = target: Neu5Ac(a2-3)Gal(b1-4)GlcNAc(b1-6)GalNAc
# How it was run: as §1
# [23] = target: Neu5Ac(a2-3)Gal(b1-4)GlcNAc(b1-6)[Gal(b1-3)]GalNAc
# How it was run: as §1
# [24] = target: Neu5Ac(a2-3)Gal(b1-4)GlcNAc(b1-6)[Neu5Ac(a2-3)Gal(b1-3)]GalNAc
# How it was run: as §1
# [25] = target: Neu5Ac(a2-3)Gal(b1-4)GlcNAc6S
# How it was run: as §1
# [26] = target: Neu5Ac(a2-3)Gal(b1-4)[Fuc(a1-3)]GlcNAc
# How it was run: as §1
# [27] = target: Neu5Ac(a2-3)Gal(b1-4)[Fuc(a1-3)]GlcNAc(b1-2)Man
# How it was run: as §1
# [28] = target: Neu5Ac(a2-3)Gal(b1-4)[Fuc(a1-3)]GlcNAc(b1-3)Gal
# How it was run: as §1
# [29] = target: Neu5Ac(a2-3)Gal(b1-4)[Fuc(a1-3)]GlcNAc(b1-3)Gal(b1-4)GlcNAc
# How it was run: as §1
# [30] = target: Neu5Ac(a2-3)Gal(b1-4)[Fuc(a1-3)]GlcNAc(b1-3)Gal(b1-4)[Fuc(a1-3)]GlcNAc(b1-3)Gal(b1-4)[Fuc(a1-3)]GlcNAc
# How it was run: as §1
# [31] = target: Neu5Ac(a2-3)Gal(b1-4)[Fuc(a1-3)]GlcNAc(b1-3)GalNAc
# How it was run: as §1
# [32] = target: Neu5Ac(a2-3)Gal(b1-4)[Fuc(a1-3)]GlcNAc(b1-6)[Gal(b1-3)]GalNAc
# How it was run: as §1
# [33] = target: Neu5Ac(a2-3)Gal(b1-4)[Fuc(a1-3)]GlcNAc(b1-6)[Neu5Ac(a2-3)Gal(b1-3)]GalNAc
# How it was run: as §1
# [34] = target: Neu5Ac(a2-3)Gal(b1-4)[Fuc(a1-3)]GlcNAc6S
# How it was run: as §1
# [35] = target: Neu5Ac(a2-3)Gal6S(b1-4)GlcNAc
# How it was run: as §1
# [36] = target: Neu5Ac(a2-3)Gal6S(b1-4)[Fuc(a1-3)]GlcNAc
# How it was run: as §1
# [37] = target: Neu5Ac(a2-3)GalNAc
# How it was run: as §1
# [38] = target: Neu5Ac(a2-3)GalNAc(b1-4)GlcNAc
# How it was run: as §1
binder,measurement,setting,value
B1,glycan array binding signal (z-score),[1],-0.199
same,glycan array binding signal (z-score),[2],-0.262
same,glycan array binding signal (z-score),[3],-0.256
same,glycan array binding signal (z-score),[4],2.88
same,glycan array binding signal (z-score),[5],-0.237
same,glycan array binding signal (z-score),[6],-0.258
same,glycan array binding signal (z-score),[7],-0.267
same,glycan array binding signal (z-score),[8],-0.223
same,glycan array binding signal (z-score),[9],-0.238
same,glycan array binding signal (z-score),[10],-0.236
same,glycan array binding signal (z-score),[11],-0.217
same,glycan array binding signal (z-score),[12],-0.231
same,glycan array binding signal (z-score),[13],0.32
same,glycan array binding signal (z-score),[14],-0.228
same,glycan array binding signal (z-score),[15],0.411
same,glycan array binding signal (z-score),[16],-0.262
same,glycan array binding signal (z-score),[17],-0.123
same,glycan array binding signal (z-score),[18],-0.102
same,glycan array binding signal (z-score),[19],-0.245
same,glycan array binding signal (z-score),[20],-0.212
same,glycan array binding signal (z-score),[21],-0.259
same,glycan array binding signal (z-score),[22],-0.244
same,glycan array binding signal (z-score),[23],-0.236
same,glycan array binding signal (z-score),[24],-0.208
same,glycan array binding signal (z-score),[25],-0.235
same,glycan array binding signal (z-score),[26],-0.234
same,glycan array binding signal (z-score),[27],-0.225
same,glycan array binding signal (z-score),[28],-0.213
same,glycan array binding signal (z-score),[29],-0.199
same,glycan array binding signal (z-score),[30],-0.183
same,glycan array binding signal (z-score),[31],-0.117
same,glycan array binding signal (z-score),[32],-0.145
same,glycan array binding signal (z-score),[33],-0.165
same,glycan array binding signal (z-score),[34],-0.234
same,glycan array binding signal (z-score),[35],-0.235
same,glycan array binding signal (z-score),[36],-0.228
same,glycan array binding signal (z-score),[37],-0.217
same,glycan array binding signal (z-score),[38],-0.236
